# In PMC4336329 (PLoS ONE, 2015):
# Out of some 310,000 compounds screened, about 14,000 (4.5%) showed an effect of 50% or more. The effect is printed as a negative number. The list shows a part of the results.
# Target: human ether-à-go-go-related gene (hERG) potassium channel (human, UniProt Q12809)
# Assay: primary screen, population patch clamp on CHO cells stably expressing hERG
# 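Note: peak tail current of the secondary pulse compared with the same well before compound.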
# Chain of human ether-à-go-go-related gene (hERG) potassium channel (Q12809 whole entry, looked up): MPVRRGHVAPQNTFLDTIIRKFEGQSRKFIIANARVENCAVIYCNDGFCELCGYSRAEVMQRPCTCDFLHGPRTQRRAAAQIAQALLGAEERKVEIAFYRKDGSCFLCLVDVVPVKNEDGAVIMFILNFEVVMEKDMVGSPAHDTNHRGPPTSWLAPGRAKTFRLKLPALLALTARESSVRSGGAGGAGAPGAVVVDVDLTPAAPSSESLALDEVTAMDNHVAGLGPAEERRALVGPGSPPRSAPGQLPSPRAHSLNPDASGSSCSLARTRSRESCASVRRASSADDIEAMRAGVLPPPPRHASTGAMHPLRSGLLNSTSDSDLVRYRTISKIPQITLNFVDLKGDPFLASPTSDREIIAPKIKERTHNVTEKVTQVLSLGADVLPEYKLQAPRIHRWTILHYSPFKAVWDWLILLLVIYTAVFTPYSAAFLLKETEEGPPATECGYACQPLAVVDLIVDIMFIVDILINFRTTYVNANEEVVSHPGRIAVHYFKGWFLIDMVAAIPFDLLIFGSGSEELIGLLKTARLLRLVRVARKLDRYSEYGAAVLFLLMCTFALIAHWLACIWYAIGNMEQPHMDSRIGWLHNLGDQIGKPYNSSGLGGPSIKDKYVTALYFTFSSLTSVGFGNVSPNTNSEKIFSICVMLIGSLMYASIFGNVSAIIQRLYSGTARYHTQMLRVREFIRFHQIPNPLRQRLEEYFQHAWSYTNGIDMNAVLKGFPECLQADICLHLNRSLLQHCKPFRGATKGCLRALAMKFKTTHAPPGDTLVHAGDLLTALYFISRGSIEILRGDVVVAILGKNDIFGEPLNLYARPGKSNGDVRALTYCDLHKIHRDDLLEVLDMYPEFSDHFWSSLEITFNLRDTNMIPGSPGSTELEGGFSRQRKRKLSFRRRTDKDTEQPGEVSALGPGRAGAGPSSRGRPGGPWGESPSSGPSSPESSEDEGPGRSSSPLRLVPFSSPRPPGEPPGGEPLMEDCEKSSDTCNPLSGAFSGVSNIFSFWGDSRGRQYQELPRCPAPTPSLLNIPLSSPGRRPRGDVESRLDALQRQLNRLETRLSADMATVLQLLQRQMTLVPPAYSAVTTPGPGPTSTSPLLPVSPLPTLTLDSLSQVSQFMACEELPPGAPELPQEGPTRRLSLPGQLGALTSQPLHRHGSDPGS
row,Structure (SMILES),"hERG current change (%, negative = inhibition) at 10uM"
1,NC(=O)C1CCN(C2CC(=O)N(Cc3ccc(N4CCCC4=O)cc3)C2=O)CC1 (centres unmarked),8.18%
2,Cn1c(C(=O)NCCN2CCOCC2)cc2c(=O)n3ccccc3nc21,10%
3,CCOC(=O)c1cc(C(=O)NC(C)c2ccccc2)c(C)[nH]c1=O (centres unmarked),7.6%
4,COc1ccccc1NC(=O)Nc1nc(CC(=O)Nc2ccc(OC)c(OC)c2)cs1,-6.21%
5,CCOC(=O)C1(CCc2ccccc2)CCN(C(=O)C2CCCO2)CC1 (centres unmarked),-13%
6,CN(CC(=O)Nc1ccc(N2CCOCC2)cc1)CC(=O)Nc1cccc(C#N)c1,-13.9%
7,CCOC(=O)C1CCN(C(=O)CSc2ccccc2Cl)CC1,-9.59%
8,COc1ccc(CNS(=O)(=O)c2ccc(-n3cnnn3)c(C)c2)cc1,-15.3%
9,COc1ccc(S(=O)(=O)NCc2cccnc2)cc1,15.6%
10,Cc1ccc(CN2CCN(c3ncccn3)CC2)c(C)c1,-12.9%
11,COc1ccc2oc(C(=O)OCC(=O)NCc3ccco3)c(C)c2c1,-10.1%
12,CCCc1nc(-c2cc3cc(C)ccc3[nH]c2=O)no1,10.2%
13,O=C1CCCN1S(=O)(=O)c1ccccc1,12.5%
14,CC1CC(C)CN(S(=O)(=O)c2ccc3c(c2)oc(=O)n3CC(=O)NCc2cccnc2)C1 (centres unmarked),-17.2%
15,Fc1ccc(OCCOCCNCC2CCCO2)cc1 (centres unmarked),-7.19%
16,COCCCn1c(SCC(=O)c2ccccc2)nc2ccccc2c1=O,13%
17,Cc1ccc(C(=O)N[C@H](C(=O)OCC(=O)c2ccc[nH]2)C(C)C)cc1,-16.8%
18,COc1ccc(OC)c(NC(=O)Cc2ccc(NC3=NC4CS(=O)(=O)CC4S3)cc2)c1 (centres unmarked),11.4%
19,CC1(C)Cc2c(c(N3CCCC3)nc3sc(C(=O)Nc4ccccc4)c(N)c23)CO1,17.6%

row,Structure (SMILES),"hERG current change (%, negative = inhibition) at 10uM"
1,CN(C(=O)Cn1cc([N+](=O)[O-])ccc1=O)C1CCCCC1,8.32%
2,N#C/C(=C\c1ccc(C#N)cc1)C(=O)N1CCCC1,7.75%
3,CC(=O)c1cnc(Nc2cccc(Cl)c2Cl)s1,11.6%
4,Cc1cccc(-n2c(Cc3cc(=O)[nH]c(=O)[nH]3)nnc2SCC(=O)N2CCCCC2)c1,-5.38%
5,COc1nnc(-c2ccc(N3CCOCC3)c(NC(=O)C3CCCCC3)c2)c2ccccc12,-37.3%
6,CCOC(=O)N1CCN(C(=O)C2CCCCC2)CC1,7.06%
7,O=C(NC12CC3CC(CC(C3)C1)C2)N1CCN(c2ccccc2)CC1,-11%
8,Cc1cccc(N(C)S(=O)(=O)c2cc3c(cc2C)n(C)c(=O)c(=O)n3C)c1,-27.3%
9,CCOc1ccccc1NC(=O)CCS(=O)(=O)c1cccc2nsnc12,1.09%
10,Cc1cc(Cl)c(OCCCCNC(C)(C)C)c(Br)c1.O=C(O)C(=O)O,-40.7%
11,Cc1nn(CC(C)C)c(Cl)c1C(=O)N(c1ccc(Cl)cc1F)S(C)(=O)=O,10.9%
12,COc1ccccc1NC(=O)c1cc(-c2cc(OC)c(OC)c(OC)c2)nc2ccccc12,3.32%
13,COc1ccc2c(c1O)C(=O)c1ccccc1C2=O,3.24%
14,CCOC(=O)N1CCC2(CC1)CC(=O)c1cc(O)ccc1O2,-4.03%
15,CCc1ccc(OCCCC(=O)Nc2ccc(S(N)(=O)=O)cc2)cc1,13.5%
16,O=C(NNC1CC(=O)N(c2cccc(Cl)c2)C1=O)c1cccnc1 (centres unmarked),1.47%
17,N#Cc1cccc(OC(=O)c2ccc3c(=O)n4c(nc3c2)CCC4)c1,-20%
18,COc1ccccc1-c1cc(C(F)(F)F)nc(S(=O)(=O)CCCC(=O)N2CCCCC2C)n1 (centres unmarked),-2.71%
19,COc1ccc(OC)c(C(c2nnnn2Cc2ccccc2)N2CCN(C3CCCCC3)CC2)c1.Cl (centres unmarked),-53.9%

row,Structure (SMILES),"hERG current change (%, negative = inhibition) at 10uM"
1,N=C1/C(=C\c2ccc(Br)o2)C(=O)N=C2SC(CC(=O)N3CCCCC3)=NN12,6.66%
2,O=C(NNC(=O)C12CC3CC(CC(C3)C1)C2)c1ccco1,26.7%
3,CC(C)CNS(=O)(=O)c1ccc(CCC(=O)N2CCN(Cc3ccccc3)CC2)cc1,-35.2%
4,CCOc1cc(/C=N/O)cc(Br)c1OC,-4.85%
5,CC(C)(C)OC(=O)NCCCCCNC(=O)c1[nH]cnc1C(=O)Nc1nccs1,-5.06%
6,CC(C)c1ccc(S(=O)(=O)N2CCN(CC(=O)c3ccc(O)c(O)c3)CC2)cc1,-24.6%
7,COc1ccc(C(=O)OC(COc2ccccc2)Cn2ccnc2)cc1 (centres unmarked),-41.6%
8,Cc1cccc(-c2nnc(N)s2)c1,9.79%
9,COC(=O)C1=C(c2cccc(OCc3ccccc3)c2)C[C@@H]2CC[C@H]1N2C(=O)NCc1ccc(OC)c(OC)c1,5.75%
10,O=C(CCCN1C(=O)c2ccccc2C1=O)NCCN1C(=O)S/C(=C\c2cccs2)C1=O,-16.4%
11,Cc1ccccc1C(=O)NC1CCN(CC(=O)Nc2ccc(N(C)C)cc2)CC1,12.8%
12,COc1cccc(CN2CC(C(=O)NCCc3ccccc3C(F)(F)F)CCC2=O)c1 (centres unmarked),-23.6%
13,Cc1ccc(Nc2c([N+](=O)[O-])c(=O)oc3ccccc23)cc1C,-34%
14,CCCN(C(=O)C(C)Oc1cccc(Cl)c1)c1c(N)n(Cc2ccccc2)c(=O)[nH]c1=O (centres unmarked),1.41%
15,COc1cc(C2c3c(n[nH]c3C)C(=O)N2c2ccc(C)cc2)ccc1O (centres unmarked),0.893%
16,CCNC(=S)NNC(=O)c1ccc(OC)cc1,13.9%
17,Cc1ccc(NC2CCCN(C(=O)CCc3scnc3C)C2)cc1C (centres unmarked),-1.81%
18,O=C(Cc1ccccc1)Nc1ncccc1Cl,6.6%
